Experimental data reported in PubChem BioAssay AID1347043 (National Center for Advancing Translational Sciences (NCATS), 2019).
Among all 76,000 compounds or so, about 1,900 (2.5%) were called active. Inconclusive results, whose numbers are uncertain, are shown with a selection of clear calls. Calls follow the shape of the dose curve; as a rule, active = well fitted inhibition curve with a large enough effect; inconclusive = small, poorly fitted or top-dose-only effect; inactive = flat fitted curve, though single readings scatter. Potencies beside an inconclusive call are fits to weak or partial responses and may not hold up.

These molecules were tested against Luciferin 4-monooxygenase (Photinus pyralis) (UniProt P08659) (assay: Firefly luciferase inhibition profiling of diverse chemical library using quantitative high-throughput screening). Conditions: purified P. pyralis luciferase, luminescence, biochemical; series mostly up to 115 µM.
In short: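 Purified 10nM P. pyralis luciferase with 10uM D-luciferin and 10uM ATP in 50mM Tris acetate pH 7.5, 10mM Mg acetate, 0.01% Tween-20, 0.05% BSA. qHTS titration; luminescence read by CCD imager.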
Also: nearly all actives have a fitted effect of over 65% in size.
Potency is read from the fitted curve at half-maximal effect; tags tell the direction and shape of the fitted curve.

Sequence of UniProt P08659 (P08659 whole entry, looked up): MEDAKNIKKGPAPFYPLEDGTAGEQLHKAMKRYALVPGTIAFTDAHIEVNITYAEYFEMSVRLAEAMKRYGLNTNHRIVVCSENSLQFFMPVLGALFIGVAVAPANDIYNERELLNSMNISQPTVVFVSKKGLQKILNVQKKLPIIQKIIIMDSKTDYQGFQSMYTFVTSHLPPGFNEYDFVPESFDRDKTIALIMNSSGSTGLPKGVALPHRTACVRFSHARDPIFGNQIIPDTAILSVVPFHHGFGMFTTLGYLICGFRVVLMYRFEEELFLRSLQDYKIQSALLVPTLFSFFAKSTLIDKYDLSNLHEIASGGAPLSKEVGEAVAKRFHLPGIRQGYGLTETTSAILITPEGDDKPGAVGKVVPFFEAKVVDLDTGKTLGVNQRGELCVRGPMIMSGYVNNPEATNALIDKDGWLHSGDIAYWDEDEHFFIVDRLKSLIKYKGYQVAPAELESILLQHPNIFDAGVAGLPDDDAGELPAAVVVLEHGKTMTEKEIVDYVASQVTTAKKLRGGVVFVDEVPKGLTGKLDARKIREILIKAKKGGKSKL

SMILES | Potency
CN1CCN(Cc2ccc(Nc3ncc(-c4cccnc4)c4c3OCC4)cc2)CC1 | inconclusive: 70.8 µM [inhibitor, partial curve]
Cc1cc(C2CCCN2C(=O)c2ccc(-c3ccccc3Cl)o2)no1 (stereo not drawn) | inconclusive: 79.4 µM [inhibitor, partial curve, poor fit]
Cc1nn(CC(=O)NCc2cc(F)ccc2F)c(=O)c2nc(C(C)C)sc12 | inconclusive: 50.1 µM [inhibitor, partial curve]
Cc1ccc2c(C(=O)N3CCCCCC3)cc(NC(=O)C3CCC3)cc2n1 | inactive
COc1ccc(-c2cc(N3CCCC(NC(=O)c4cc(F)ccc4F)C3)n[nH]2)cc1 (stereo not drawn) | inconclusive: 44.7 µM [inhibitor, partial curve]
CN(C)CCOCC1(C)COc2ccc(C(=O)Nc3cccc(N(C)C)c3)cc2N1 (stereo not drawn) | inconclusive: 70.8 µM [inhibitor, partial curve]
CCOCCN1C(=O)COC[C@@H]1[C@H](O)c1ccc(NC(=O)c2ccc(OC)cc2)cc1 | inconclusive: 56.2 µM [inhibitor, partial curve]
Cc1ccc(-n2nc(C)c([C@@H]3C=C[C@@H](NS(=O)(=O)c4cccs4)C3)c2C)cc1Cl | inconclusive: 56.2 µM [inhibitor, partial curve, poor fit]
Cc1ccccc1-c1nc(-c2c(C)noc2C)cc2cc(CN(C)C)oc12 | inactive
COCC(=O)Nc1nc2c(s1)C[C@]1(C)CC[C@@H]3[C@H](OC(=O)[C@H]3C)[C@H]1[C@@H]2C | active: 0.631 µM
CCOC(=O)c1ccc(Nc2nc(-c3ccccc3)no2)cc1 | inconclusive: 1.41 µM [inhibitor, full curve]
Fc1ccc(Cc2nc3nccc(-c4ccc5c(c4)OCCCO5)n3n2)cc1 | inconclusive: 44.7 µM [inhibitor, partial curve]
CCC(CC)NC(=O)CCC1CCN(C(=O)c2ccccc2Cl)CC1 | active: 39.8 µM
COc1ccc(NC(=O)c2ccc3c(c2)OCCN(C2CCC2)C3)c(F)c1 | inconclusive: 112 µM [inhibitor, partial curve, poor fit]
CC(C)CC(=O)N1CCC2(CC1)CN(c1ccccc1)C2=O | inactive
CCN(Cc1cnn(CC)c1)C(=O)C1CCCCC(=O)N1Cc1cccc(OC)c1 (stereo not drawn) | inconclusive: 100 µM [inhibitor, single point]
Cc1nn(-c2ccc(C(C)(C)C)cc2)c(C)c1[C@@H]1C=C[C@@H](NC(=O)c2ccco2)C1 | active: 14.1 µM
COCCNC(=O)Cc1c[nH]c2ncc(-c3ccc(OC)cc3)cc12 | inconclusive: 126 µM [inhibitor, single point]
CC(=O)Nc1ccc(NC(=O)CN2C(=O)NC(c3ccc(C)cc3)C3=C2COC3=O)cc1 (stereo not drawn) | inconclusive: 50.1 µM [inhibitor, partial curve, poor fit]
Cc1cc(C)n(CCC(=O)N2CC(F)(F)C[C@H]2c2nc(C)no2)n1 | inactive
CC(=O)N1CCNc2cc(NCc3ccc(F)cc3)ncc2C1 | inconclusive: 89.1 µM [inhibitor, partial curve]
CC(NC(=O)CCc1conc1-c1ccccc1)c1ccc(F)cc1 (stereo not drawn) | active: 17.8 µM
O=C(COc1ccc(F)cc1)N1CCCC(Cc2noc(-c3ccccc3)n2)C1 (stereo not drawn) | inconclusive: 44.7 µM [inhibitor, partial curve]

SMILES | Potency
C=CCNC(=O)N1CC[C@@H](CC(=O)O)[C@@H](CC2=NCCc3cc(OC)ccc32)C1 | inactive
CN1CC2(CCN(C(=O)Nc3ccc4c(c3)OCCO4)CC2)CC1C(=O)N1CCOCC1 (stereo not drawn) | inconclusive: 50.1 µM [inhibitor, partial curve]
COc1ccc2c(C)c(C(=O)N3CC(Oc4c(C)cccc4C)C3)oc2c1 | inactive
Cc1ccc(-c2cc3c(=O)n(CCNC(=O)c4ccc(F)cc4)ccn3n2)c(C)c1 | inconclusive: 2.51 µM [inhibitor, full curve]
O=C1CC2(CCN(Cc3ccccc3)CC2)Oc2ccccc21 | inconclusive: 89.1 µM [inhibitor, partial curve]
COc1ccc(C2Cn3cnc(-c4nc(-c5ccc(OC(C)C)cc5)no4)c3CO2)cc1 (stereo not drawn) | inconclusive: 28.2 µM [inhibitor, partial curve]
COc1ccc(CCc2nc3nccc(-c4ccc(OC)cc4)n3n2)cc1 | inconclusive: 44.7 µM [inhibitor, partial curve, poor fit]
Clc1ccc2oc([C@H]3CCN(Cc4cccs4)C3)nc2c1 | inconclusive: 63.1 µM [inhibitor, full curve]
CC(C)c1ccc(-n2cc(CN3CCCC4(C3)CN(C)C(=O)O4)cn2)cc1 (stereo not drawn) | inconclusive: 50.1 µM [inhibitor, partial curve]
Cc1ccc(-c2noc(-c3nnn4c3COC(c3ccc(Cl)cc3)C4)n2)cc1 (stereo not drawn) | inactive
CCOc1ccccc1NC(=O)Nc1cccc(-c2ccc(N3CCCC3)nn2)c1 | active: 6.31 µM
CCc1ccc(NC(=O)C2CCN(C(=O)c3nnn4cc(C)[nH]c(=O)c34)CC2)cc1 | inconclusive: 44.7 µM [inhibitor, partial curve]
O=C(CCc1ccccc1)NCCn1cccc1-c1nc(-c2ccc3c(c2)OCO3)no1 | active: 50.1 µM
CC(C)Oc1ccc(CN2CCC(C)(c3noc(C4CCOCC4)n3)CC2)cc1 | inactive
Cc1cccc(C(=O)NC2CCN(c3cc(-c4ccc(F)cc4)[nH]n3)C2)c1 (stereo not drawn) | inactive
CC(C(=O)NCc1ccccc1)C1CCOCC1 (stereo not drawn) | inactive
Cc1ccc(-c2noc([C@@H]3C[C@H](NS(=O)(=O)c4ccc(Cl)cc4)CN3C)n2)cc1 | active: 22.4 µM
COc1ccc(-c2cc(N3CCCC(NC(=O)Cc4ccsc4)C3)n[nH]2)cc1 (stereo not drawn) | inconclusive: 44.7 µM [inhibitor, partial curve]
CC(C)CCN1CCC(N2CCN(S(=O)(=O)c3ccc4c(c3)CCCC4)CC2)C1=O (stereo not drawn) | inactive
Cc1ccc(C2=NC3(CCN(C(=O)c4ccc5cc[nH]c5c4)CC3)ON2)cc1 | inconclusive: 39.8 µM [inhibitor, partial curve]
CCOc1cc(=O)n2c(c1C(=O)Nc1ccc(OC)cc1C)CCCC2 | inactive
CCCN(CC1CCOC1)C(=O)Nc1ccc(C)c(F)c1 (stereo not drawn) | inconclusive: 44.7 µM [inhibitor, partial curve, poor fit]
CCN(CC)c1ncccc1CNC(=O)Nc1ccc2c(c1)OCO2 | inconclusive: 31.6 µM [inhibitor, full curve, poor fit]

SMILES | Potency
CN1C[C@@H](NC(=O)Nc2ccc(F)cc2F)C[C@H]1c1nc(-c2ccncc2)no1 | inconclusive: 63.1 µM [inhibitor, partial curve]
Cc1ccc(C2=NC3(CCN(C(=O)c4cc(F)ccc4Cl)CC3)ON2)cc1 | inconclusive: 35.5 µM [inhibitor, partial curve]
Cc1ccccc1-c1noc(CN(C)Cc2cc(-c3ccncc3)no2)n1 | inactive
CCn1cnnc1-c1nn(C)c2c1CN(C(=O)CCc1ccc(OC)cc1)CC2 | inactive
COCCNC(=O)c1coc(COc2ccc3c(c2)C(c2cccc(F)c2)N(C(=O)C(C)C)CC3)n1 (stereo not drawn) | inactive
c1ccc(CCCNc2nccc(-c3ccccn3)n2)nc1 | active: 10 µM
Cc1cc(NC(=O)C2CCN(C(=O)c3ncn4c3COC(c3ccc(F)cc3)C4)CC2)ccc1F (stereo not drawn) | active: 22.4 µM
CC1CCN(C(=O)CCN2C[C@H](NS(C)(=O)=O)[C@@H](C(C)C)C2)CC1 | inactive
Cc1cccc(C(=O)NC2CCN(c3cc(-c4ccc(F)cc4)[nH]n3)CC2)c1 | inactive
O=C(Nc1ccc(Cl)cc1)c1nc2c(o1)CCN(Cc1nccs1)CC2 | active: 22.4 µM
O=c1ncn(Cc2ccccc2)c2ccc(NCCOc3ccccc3)nc12 | inconclusive: 70.8 µM [inhibitor, partial curve, poor fit]
O=C(NCCC1CCN(C(=O)Nc2ccccc2)CC1)c1ccc(F)cc1 | inconclusive: 50.1 µM [inhibitor, partial curve]
COc1ccc(C(=O)N[C@H]2C[C@@H](c3nc(-c4ccc(Cl)cc4)no3)N(C)C2)cc1 | inconclusive: 50.1 µM [inhibitor, full curve]
Cn1ccc2cc(NCc3nnc(C(=O)N4CCC[C@@H]4CN4CCCC4)n3-c3ccccc3)ccc21 | inconclusive: 44.7 µM [inhibitor, partial curve]
c1ccc2sc([C@H]3CCN(Cc4ccc5c(c4)OCO5)C3)nc2c1 | inconclusive: 56.2 µM [inhibitor, full curve]
NC1CCCCN(Cc2cc3ccccc3o2)C1 (stereo not drawn) | inactive
CC(=O)NCC(=O)N1CCC(n2cc(-c3nc(-c4ccccc4)no3)nn2)CC1 | inconclusive: 56.2 µM [inhibitor, partial curve]
O=C(c1ccn(C(F)F)n1)N1CCc2nc(-c3ccc(Cl)cc3)[nH]c2C1 | inconclusive: 50.1 µM [inhibitor, partial curve]
C[S+](=O)([O-])CCn1ncc2cc(OCC3CCN(CCC(F)(F)F)CC3)ccc21 | inconclusive: 50.1 µM [inhibitor, partial curve]
O=C(C[C@@H]1CCNC[C@@H]1Cc1cc(-c2ccc(F)cc2)on1)NCc1ccc2c(c1)OCO2 | inactive
CCn1cnnc1CC1CCN(C(=O)C2CCN(Cc3nc(-c4cccc(C)c4)oc3C)CC2)CC1 | inactive
Cn1cccc1C(=O)N1CC(Oc2ccc(-c3nc(-c4ccccc4)no3)cc2)C1 | inconclusive: 15.8 µM [inhibitor, full curve]
